Test results reported in the supplement of paper PMC3334620.
Over roughly 33,000 sequences, “E-score (-0.5 to 0.5)” has its median near -0.032; the highest 2% begin near 0.36. The list shows a part of the results.

target: T1, Sko1 (UniProt Q02100); assay: PBM E-score (8-mer binding enrichment) (E-score (-0.5 to 0.5)); higher = stronger / more preferred TF binding; most listed sequences are background and not binding sites; details: protein concentration: 200 nM; construct: GST-full length
T1 sequence: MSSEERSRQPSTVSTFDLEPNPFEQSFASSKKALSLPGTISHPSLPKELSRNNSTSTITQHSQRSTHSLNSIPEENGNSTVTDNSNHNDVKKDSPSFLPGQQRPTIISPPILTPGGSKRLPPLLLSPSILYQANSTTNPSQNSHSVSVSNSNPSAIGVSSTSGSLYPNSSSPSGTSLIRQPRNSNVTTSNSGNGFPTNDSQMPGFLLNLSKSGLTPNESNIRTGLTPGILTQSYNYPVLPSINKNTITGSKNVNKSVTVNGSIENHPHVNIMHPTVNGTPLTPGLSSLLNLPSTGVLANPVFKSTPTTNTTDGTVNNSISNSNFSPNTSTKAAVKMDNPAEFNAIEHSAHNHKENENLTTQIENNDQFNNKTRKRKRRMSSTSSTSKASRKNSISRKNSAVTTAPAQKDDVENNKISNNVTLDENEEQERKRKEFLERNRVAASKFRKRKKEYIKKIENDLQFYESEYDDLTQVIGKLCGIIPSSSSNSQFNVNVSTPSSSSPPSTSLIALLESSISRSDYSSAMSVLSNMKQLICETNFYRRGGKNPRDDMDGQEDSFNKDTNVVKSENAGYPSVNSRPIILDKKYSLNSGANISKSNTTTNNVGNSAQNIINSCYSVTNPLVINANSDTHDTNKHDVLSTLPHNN
Procedure, shortened: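 For each ungapped eight-base word taken together with its reverse complement, the Universal PBM Analysis Suite assigned an E-score. Binding data came from GST-tagged yeast transcription factors, applied at about 100-200 nM, on universal all-10-mer Agilent arrays made double-stranded by primer extension. Fluorescent anti-GST marked bound protein, and scans were normalised with masliner.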

Sequence	PBM E-score
AGGTTTAT	0.0336
AGGGTACC	-0.263
GCGACATA	0.145
AAGATGGC	0.0108
AATTCACC	0.0082
GATATCCC	-0.0229
ACGGATCC	-0.241
GATATGCA	-0.0234
CAATGTGC	0.0595
ATGATCGA	0.125
GTCTGGAA	-0.158
GACGTTAC	0.365
AAGGAGCG	-0.155
ATTATGCC	0.023
AGCTACCC	-0.136
CAGACATG	-0.0633
ACAACCGA	-0.0634
CGACCGTC	-0.0991
AATTCACT	-0.0357
AGCGCGCG	0.0968
ATTGAAGA	0.209
ATCCTCAC	0.018
AAACCTCG	-0.0477
ACAGTCCT	-0.21
AGTGAGAA	-0.0212

Sequence	PBM E-score
GCTCGCTA	-0.00762
AGTACCAT	-0.0224
ATAGGAGG	-0.29
TGGAATAA	0.0262
ACCACACT	-0.108
TTACCCAA	-0.021
CGGTATCC	-0.298
CTGAGGGC	-0.195
ATAAATAT	0.221
GACGAAGA	0.209
ATAATTGA	0.184
TAGTGCGA	-0.157
CCCTCGCG	-0.228
TAGCTTGA	-0.0368
ATCCCTCC	-0.123
CGTGTAAC	0.0976
TCGCACCA	-0.183
GAGATTAC	0.325
CGCACGGA	0.02
CTACACCC	-0.143
CGGTCGCC	-0.104
GCGGCCAC	-0.217
CTAGTTTC	-0.125
GAACCGCC	-0.197
TCCCCGGA	-0.35

Sequence	PBM E-score
CGTTCGCC	-0.0406
CAGGGGAA	-0.333
CGTAAGGC	0.263
ACCTCGGC	-0.19
ACAGTGCC	-0.133
ACTTGTAG	0.0787
GACTTAGC	-0.149
GAAAATTC	0.0959
TCCTCGAA	0.0471
ATCCGCAC	0.0155
AGACGCAT	0.0335
CCATAAAG	0.00247
ATCTTGCC	-0.0574
CACAATCA	0.0358
GGATACAC	-0.164
ACTGACTG	-0.0797
TAATACTA	0.304
AACGGACA	0.0822
ACGGAGCC	-0.337
AGGCGTAC	0.105
CCTAATGC	-0.00656
CTGATAAC	0.112
ATCTAAAA	0.0263
CGCACTCC	-0.0923
AATTTTTC	0.0596

Sequence	PBM E-score
ACCCGAAT	-0.108
AACAAGTT	0.03
AGTGCAGA	-0.0919
AAAACCGC	0.0701
AGTACAGC	-0.155
ACTCCTCA	-0.192
AGGTCGTA	0.0256
AAACTCCA	-0.00944
ATACAATC	0.0676
ACGACTAG	0.074
ACGGGGCG	-0.0903
CACGACGC	0.0788
CATGGCGC	-0.018
CGCCCGCC	-0.189
CGCATCCG	-0.123
AGATTTGC	0.135
ATCCATTA	0.0706
AACGCATG	0.14
ATACATCG	0.196
ATCGCCAA	-0.119
ACCATGCG	0.0184
GGGTCGCA	-0.148
ATGTCCTC	-0.00522
CATTGGTA	-0.135
CGCCTATC	-0.143

Sequence	PBM E-score
GCTCTTGA	-0.154
CGTGTGGC	0.152
AGTCATGG	0.0552
ACTACCAG	-0.162
CTCACACC	-0.0913
AATAAAGT	0.104
AGAGAATG	0.0874
CCCTGCTA	-0.311
GCTATGCC	-0.255
TCTATCAA	0.171
AGCTACTG	-0.0638
TGATTACA	0.29
TAACGCCA	0.144
ATGCCTAG	-0.0306
CAACCTCC	-0.25
ATCAAGAA	0.22
AGTATCCA	-0.152
ACCCCTAT	0.0475
AAGATGAA	-0.078
GTCAACGA	0.167
CGACCTGC	-0.175
CGATGTGC	-0.0445
CAGTGTGA	0.0998
GATGGCCA	-0.166
ACTCCCAC	-0.278

Sequence	PBM E-score
GTGCGTTA	0.259
TGATACAA	0.112
ACCATTCT	-0.115
GACAGGAA	-0.0107
CACCCTGA	-0.21
CGATCCGA	-0.187
CTGCGCAA	0.0184
TAACTACA	0.147
CAAAACAC	0.169
CACCCTCC	-0.188
CTGTATGA	-0.0143
ACGTAGAG	0.387
AAACCTTC	-0.131
AACGAGCT	-0.0043
CCAGTAGC	-0.185
GATTGTTA	0.159
CCTCAGCG	-0.178
AGTGGAAG	-0.198
ATGAACTG	0.0961
CCCGACTC	-0.285
CGTAGCAG	0.145
GGACTTCA	-0.319
ACTTGGCA	-0.166
AGCCTATG	-0.163
GTTCTCAA	0.0454

Sequence	PBM E-score
CGACGCAC	0.277
GATGGACC	-0.056
ACTTCGCG	0.0331
ACTACAAG	0.0642
CGTCTGTC	-0.0271
CTACAAGA	-0.0664
AATACTCG	0.179
CGCTTTCA	-0.0607
GACATGAA	0.0509
CGCGCACG	0.163
CAGCTCCG	-0.0639
CTCTAACC	-0.124
CTTCTAAC	-0.0232
AACTATAA	0.081
TAAGCCTA	0.0163
CATGTAGC	-0.0785
AAGCGTGC	0.0145
TCTTTGCA	0.0118
ATGACCCG	-0.254
GCATACGA	0.188
CCGCAGAA	-0.0505
CGTTTTCC	0.132
CTCAGGTC	-0.0401
CATGACCC	-0.0865
CTCAACCC	-0.124

Sequence	PBM E-score
GCCACCAC	0.0383
CACTTGCC	-0.141
ATTTATGG	-0.0614
CTGCCTAA	0.0174
GGAACAGA	-0.121
GGCGATGA	0.032
CGGCCAGC	-0.249
AGAGCTCT	-0.168
AGCCCGAG	-0.15
ACCAGCAC	-0.031
CCAAGCCG	-0.249
ATCGTCTA	0.0503
CGACGTGC	0.22
CGAACTTA	-0.00879
AAGGAGTA	-0.211
CCTCGAAA	-0.0122
AATTGTCG	0.0428
TATGGCCA	0.0659
AGTCGACA	0.138
CTTAACTC	0.101
AAGGTATA	-0.0569
ATCCGCGA	-0.0147
ACCAATGG	-0.28
TAAGCGCA	-0.0542
CACCCACC	0.00165

Sequence	PBM E-score
CCCCAGAA	-0.064
GGCATACA	-0.0373
CCCAGAGC	-0.302
ACAGTCAC	0.0509
TAAGTTGA	0.108
ACTTCCCT	-0.0484
CAGGCGTA	0.0577
GAGTGCCC	-0.271
GGTTCACA	-0.0743
AAGCCACT	-0.198
ACCCCTCC	-0.278
ACGAGACT	0.0545
AAGGAGAT	0.0451
CTAGCAAA	-0.0312
CCGCAGGC	-0.0769
CATTCGAC	0.103
ACCCTACA	-0.0646
AAGCAGAA	0.0508
CCTAGTGC	-0.128
AATTGGGC	-0.125
GAAAGCTA	-0.168
AGACAGTA	0.0897
AGGGGTAG	-0.284
GATTTTCA	0.173
AACGTCTG	0.239

Sequence	PBM E-score
AATATCAT	0.213
AATCCTAA	-0.0686
ACTCAACT	0.0578
TCCACAAA	-0.0157
ACGATTTA	0.328
GGAATCCA	-0.172
GGTAACGA	0.0123
ACGTATGA	0.473
CTACGGCC	-0.354
TGAATGCA	0.136
CGTTCCCC	-0.187
CGGGGCAC	-0.179
CCGGAATC	-0.283
CACCCACA	0.00864
GATTATCC	-0.216
CCACGGGA	-0.164
AGGTACAC	-0.214
TAGACCCA	0.0152
AGGAAGGG	-0.288
ACTGTAGC	-0.173
AAAAAAAA	0.103
CTCTAGCA	0.0554
CGGCCGTA	-0.169
AATCTTGG	-0.159
CCGCCAGG	-0.18

Sequence	PBM E-score
TCCTCCCA	-0.226
CAGTGAGC	-0.134
AGGGGTTG	-0.184
ATGGTACA	-0.0602
TGCGACAA	0.112
GAAGAAGC	-0.116
ACCCGAAC	-0.00662
CGCCCCCA	-0.137
GCCGGGGA	-0.197
GGAGCCAA	-0.247
AACGCGGA	0.0471
GCTACTAA	0.0526
ATAGCATA	0.192
ATTAGGGG	-0.0496
CGGTCCCA	-0.281
CCGGCGAA	-0.0327
ACCCTGTC	-0.29
AGTAAGTA	0.193
AATCCGGG	-0.31
CTCTCCCC	-0.333
CGTCACGA	0.443
AGGCACTC	-0.232
CGGCTACA	-0.0312
GCTTTTCA	-0.13
AATAGATA	0.199

Sequence	PBM E-score
AATGTTGT	0.156
GTCACGTA	0.421
CTCGCGAG	-0.253
ACTGGTTC	-0.132
CCGCTGCG	-0.151
GGAGCCAC	-0.3
ACTATTAT	0.0509
ATGGTCTC	-0.119
ATCGAGCA	-0.112
CAAATGGG	-0.0572
CGCAGGCA	-0.132
ATACGTAA	0.491
CCAACCAG	-0.205
CACGCCGA	-0.213
CTCTCTAC	-0.0204
CCGACACG	-0.104
ATGGGTGA	-0.13
GTTCCACA	-0.15
GGGCACCA	-0.19
CGGTCGCA	-0.192
AAAAAATA	0.191
AGTTCTCA	-0.0606
TATACCAA	0.0595
GTATTGAA	0.266
CGGCGAAG	-0.223

Sequence	PBM E-score
TCTGGCAA	-0.261
GCTATCAA	0.00896
CGCGCGTA	0.19
AACAAATC	0.175
GTCTACCA	0.0128
TGTCTCAA	-0.0526
AGGTTATG	0.0862
AGCTCGAT	-0.139
GATCTGGA	-0.116
GAAGCTAA	0.0228
CTGTAAAA	0.0417
GCTACTCC	-0.343
ACAGTATA	0.0494
GGCATCTA	-0.053
GGACGTCA	0.466
ACAAACTA	0.00391
ATTCTTAG	0.0309
ACACCCTG	-0.252
CCCCCGTC	-0.201
AATTCTCG	0.0707
GGCATGAA	-0.00295
CCGCGTCC	-0.00078
AGAACGCC	-0.0918
AATGTAAT	0.257
AATGCAAA	0.0649

Sequence	PBM E-score
GATTAACC	-0.125
GATATAAA	0.166
ACGGCAAC	-0.0493
GATTATGC	-0.121
AAGAACCT	-0.0484
CCCGAGCG	-0.186
CCTAATGA	0.129
ACTATTGG	-0.179
CTATGTCA	0.338
ACAACTTG	-0.0253
AGGCTTTC	-0.0108
CGTTGAGA	0.0138
ACACCACA	0.114
ACCCTTGC	-0.172
GTAATTAA	0.237
GGTATCTA	0.0817
CTAACGTA	0.374
AGAGTGAC	0.122
TCATATGA	0.285
